Publication PMC12136788
The list shows a part of the results.

B1: chr13:42321371:42321394:+|3pUTR|ENSG00000023516|msi1_unk|total|mutant (ssRNA)
RNA: GGGAGUUCUACAGUCCGACGAUCUUCUGUUUAUGGUGUAAUCAUUCUGAGGUGAGGCUUUUCUUAUUUCCUUUGCAUUUUGCCCGAGCUGUGCUGAGUUCAGCAUUUGCUUAUUUAACCACUACAUAAUGACAGACCAGUUAUCAACAGAGGAUUGAGCAUCA
B2: chr5:154419581:154419682:+|3pUTR|ENSG00000164574|msi1|FALSE|unique (ssRNA)
RNA: GGGAGUUCUACAGUCCGACGAUCAAAGGGAUGGGUGUGUCCUCUGAGCACUCUGGCAUUUGUCAUUGCUGAGCCCAUAUCAGUAGGUCCUGGGACUUGACAAAGUAUGUGGGAGGGGAAGGAAGGACAGAACUUGACUGGCUCCAACAGAGGAUUGAGCAUCA
B3: chr16:30603633:30603734:-|3pUTR|ENSG00000156853|unk|total|mutant (ssRNA)
RNA: GGGAGUUCUACAGUCCGACGAUCGUUAAGUACCACAUUCUCCUCUAAACCUUGCCUACGACAUGUUUAAUACUUCAUCUACACCGCAGCCCUUCAGAUAAUCACAACCACUUUGCCCCCAAGUUUUCAGGUUAAGCCGCAUGACAACAGAGGAUUGAGCAUCA
B4: chr10:27170558:27170670:+|CDS|ENSG00000120539|unk|total|mutant (ssRNA)
RNA: GGGAGUUCUACAGUCCGACGAUCCUUAUGUGUGAACUCGAUGAAGACUGUGAAAAGAACCGUAAGAGGGACUACUUAAGUUCCCGUUUUCUAUGUUCUGAUGAUGACCGAGCUUCUAAAAAUAUUUCUAUGAACUCUGAUUCACAACAGAGGAUUGAGCAUCA
B5: chr7:27100353:27100725:-|three_prime_utr|ENSG00000105996|control|control|control (ssRNA)
RNA: GGGAGUUCUACAGUCCGACGAUCUUUUUUAUUUUCUUCUUGACCUACCCCUUCCCUCCUUUAAGUGUUGAGGAUUUUCUGUUUAGUGAUUCCCUGACCCAGUUUCAAACAGAGCCAUCUUUUACAGAUUAUUUUGGAGUUUUACAACAGAGGAUUGAGCAUCA
B6: chr15:44524374:44524475:+|3pUTR|ENSG00000137770|msi1|FALSE|unique (ssRNA)
RNA: GGGAGUUCUACAGUCCGACGAUCUAUCUAUCUCAGAUCGAAUACAUAUAGUAGGUAGGCUAAAACAGAAGAGUCUUUAGAACUAGUGCAACUCCAGUGAAAUUUUUUAUGUACAGGACAUCUGCAGUUUAUAAAGAAUUCUGUCAACAGAGGAUUGAGCAUCA
B7: ENSG00000124766:be:win_2051|3pUTR|ENSG00000124766|bound_else_gene|NA|bound_elsewhere_windowed (ssRNA)
RNA: GGGAGUUCUACAGUCCGACGAUCACGCAGGCGAAUUCCCGUUUGGGGCUUUUUUUUCCUCCCUCUUUUCCCCUUGCCCCCUCUGCAGCCGGAGGAGGAGAUGUUGAGGGGAGGAGGCCAGCCAGUGUGACCGGCGCUAGGAAACAACAGAGGAUUGAGCAUCA
B8: chr11:72288215:72288316:-|3pUTR|ENSG00000162129|unk|FALSE|unique (ssRNA)
RNA: GGGAGUUCUACAGUCCGACGAUCACCCAGCUAAUUUUUUUUGUAUUUUUAGUAAAGACGGGGUUUCACCAUGUUUGCCAGGCUAGUCUCAAACUCCUGGUCUCAAGUGAUCCACCCACCUUGGCCUCCCAGAGUGCUGAGAUUCAACAGAGGAUUGAGCAUCA
B9: chr11:118750849:118750950:-|3pUTR|ENSG00000110367|msi1|total|mutant (ssRNA)
RNA: GGGAGUUCUACAGUCCGACGAUCAUUCCCGAAAGUACUUUGGCCUCGUGCUGCCGAGAGCAGAUUUCUAUGGUACCCUGUGUCCGUAAAGGGGCCCAGAAAUCUGGGAUGUACUGUUUGCUGCCACACUGUCUCAUCCCGUACCAACAGAGGAUUGAGCAUCA
B10: chr15:40213340:40213445:+|CDS|ENSG00000156970|unk|FALSE|unique (ssRNA)
RNA: GGGAGUUCUACAGUCCGACGAUCACACAGUGAAUAUAUUACCCAUGAAAUAACAGUGUUGAUUAUUUAUAACCUUUUGACAAUAGUGGAGAUGCUACACAAAGCAGAAAUAGUCCAUGGUGACUUGAGUCCAAGGUGUCUGAUCAACAGAGGAUUGAGCAUCA
B11: chr3:120396629:120396730:-|3pUTR|ENSG00000163430|msi1|FALSE|unique (ssRNA)
RNA: GGGAGUUCUACAGUCCGACGAUCGCCUUCAUUUCUAGGAGUGCUUUAAGAGAAACUGUAAAUGGUGCUCUGGGGCUGGAGGCUAGUAAGGAAACUGCAUCACGAUUGAAAGAGGAACAGACCCAAAUCUGAACCUCUUUUGAGCAACAGAGGAUUGAGCAUCA
B12: ENSG00000122008:stop:overlap|stop_codon|ENSG00000122008|stop_codon|NA|stop_codon (ssRNA)
RNA: GGGAGUUCUACAGUCCGACGAUCGAGCAUUAUUGGCUUUUUACAGGCUGGAAACCAAGCCCUGUCAGCCACUGAGUGUACAUUAGAGAAAACUGACAAAGAUAAGUUUGUAAAACCUCUAGAAAUGUCUCAUAAGAAGAGUUUCAACAGAGGAUUGAGCAUCA
B13: ENSG00000124766:be:win_1701|3pUTR|ENSG00000124766|bound_else_gene|NA|bound_elsewhere_windowed (ssRNA)
RNA: GGGAGUUCUACAGUCCGACGAUCCUGUGAUUGUUGUUAUUGAUGUUGUUGUUGAUGGCAAAAAAAAAAAAGCGACUUCGAGUUUGCUCCCCUUUGCUUGAAGAGACCCCCUCCCCCUUCCAACGAGCUUCCGGACUUGUCUGCCAACAGAGGAUUGAGCAUCA
B14: chr6:11183581:11183682:-|3pUTR|ENSG00000111859|msi1|total|mutant (ssRNA)
RNA: GGGAGUUCUACAGUCCGACGAUCAAAACAAGAAUGCAUGAUCUCAGAGUGAUUAAAAAAAAAUCAGUGGAAAUAAAUGAUCACCGAAGGUGCUUUUCAAAACAACUGCUAUUAUAAUUCUCAAAGUCCUACUCUGCCAAAAGACAACAGAGGAUUGAGCAUCA
B15: chr12:24811411:24811512:-|3pUTR|ENSG00000060982|msi1|total|mutant (ssRNA)
RNA: GGGAGUUCUACAGUCCGACGAUCGUGAAGAACUCUAUAUUUGUAUGUUGAGAGGGCAUGGAAUAAUUGUAUUUUGCUGGCAACCGACACAUUCUUUAUUAUUUGCAGAUUCCUCAUCAAAUCUGUAAUUAUGCACAGUUUCUGCAACAGAGGAUUGAGCAUCA
B16: chr12:109850944:109852737:-|three_prime_utr|ENSG00000139433|control|control|control (ssRNA)
RNA: GGGAGUUCUACAGUCCGACGAUCGCUCUCCAAGGGGCAGAAUGUUACGGAGGAGGAGUGCCUGGAGAAGAUCCGCCUCUUCCUAGUCAACUACACGGCGACCAUCGAUGUCAUCUACGAGAUGUACACCCAGAUGAACGCUGACAACAGAGGAUUGAGCAUCA
B17: chr21:42918526:42919006:-|CDS|ENSG00000233056|control|control|control (ssRNA)
RNA: GGGAGUUCUACAGUCCGACGAUCAAUUGGACAAUGGGGAGUAAACACUCAGGUGCUUGAGGACAUAAAGAGAGAACAGAUUAUAGCCAAAGCCAAAGCCUCAAAACCAACAACUCCCCCUGAAAAUCGCCCGCGGCAUUUCCACAACAGAGGAUUGAGCAUCA
B18: ENSG00000144824:stop:overlap|stop_codon|ENSG00000144824|stop_codon|NA|stop_codon (ssRNA)
RNA: GGGAGUUCUACAGUCCGACGAUCUGCGGAUCUGGAUGGAUGUUAUAGUUACGGGGGCAGAAGGUUACACUCACUUCUUGUUGUAGUGAACUGAGGCAACAGUCCACUUCAGGGCAGACGGCAAUAAUCUCUUACAAGAAUGAACAACAGAGGAUUGAGCAUCA
B19: chr10:119167843:119167906:-|3pUTR|ENSG00000165672|msi1_unk|FALSE|overlapping (ssRNA)
RNA: GGGAGUUCUACAGUCCGACGAUCUGCAUGAUCCCUCAUCCCUGAAAUUGAGUUUAUGUAGUCAUUUUACUUAUUUUAUUCAUUAGCUAACUUUGUCUAUGUAUAUUUCUAGAUAUUGAUUAGUGUAAUCGAUUAUAAAGGAUACAACAGAGGAUUGAGCAUCA
B20: chr1:112701350:112701454:-|3pUTR|ENSG00000155366|unk|FALSE|unique (ssRNA)
RNA: GGGAGUUCUACAGUCCGACGAUCGGCUCCAUGCUGAAGGCUCCCAUUUUCAGUUCCCUCCUGCCCAGGACUGCAUUGUUUUCUAGCCCCGAGGUGGUGGCACGGGCCCUCCCUCCCAGCGCUCUGGGAGCCACGCCUAUGCCCCAACAGAGGAUUGAGCAUCA
B21: chr1:154584646:154584747:-|3pUTR|ENSG00000160710|unk|FALSE|unique (ssRNA)
RNA: GGGAGUUCUACAGUCCGACGAUCAUGCUCCAGUGACAGAUGGAUUAGGGUGUGUCAUACUAGGGUGUGAGAGAGGUAGGUCGUAGCAUUCCUCAUCACAUGGUCAGGGGAUUUUUUUUUCUCCUUUUUUUUUCUUUUUAAGCCCAACAGAGGAUUGAGCAUCA
B22: ENSG00000110756:stop:overlap|stop_codon|ENSG00000110756|stop_codon|NA|stop_codon (ssRNA)
RNA: GGGAGUUCUACAGUCCGACGAUCGGGCCUUGAUACAAAGCAUGCUUGAAAAAUGCGAUCGGUUUCUCUGGUCCCAGCAGGCCUAGUGGGAGAAGAUUCAGCAGGAUGUCAUGACAUUUUGAGAAAAACUAAAUCAUGCUCCUGCAACAGAGGAUUGAGCAUCA

target: MSI1 full-length (mouse, UniProt Q61474 1-362); assay: nsRBNS (natural sequence RNA bind-n-seq); RBNS binding buffer (assumed for nsRBNS): 25 mM Tris pH 7.5, 150 mM KCl, 3 mM MgCl2, 0.01% Triton X-100, 500 ug/ml BSA, 20 U/ml SUPERase-In, 4 C; UNK is unkempt and MSI1 is Musashi-1; names of the RNAs are library labels; protein concentration not given here; high values mean tight binding
Sequence of UniProt Q61474 (Q61474 whole entry): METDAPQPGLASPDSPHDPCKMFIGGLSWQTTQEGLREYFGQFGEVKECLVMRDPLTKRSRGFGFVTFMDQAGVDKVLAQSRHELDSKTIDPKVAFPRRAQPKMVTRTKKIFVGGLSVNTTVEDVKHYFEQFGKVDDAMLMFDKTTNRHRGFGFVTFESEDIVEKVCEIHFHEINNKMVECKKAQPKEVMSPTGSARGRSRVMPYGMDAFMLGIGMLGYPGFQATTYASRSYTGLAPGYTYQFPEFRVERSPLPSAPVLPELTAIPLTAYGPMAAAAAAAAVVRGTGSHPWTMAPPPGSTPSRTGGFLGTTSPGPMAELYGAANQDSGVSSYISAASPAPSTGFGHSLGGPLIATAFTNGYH

Binder | binding signal [enrichment R]
B1 | 0.543
B2 | 0.52
B3 | 1.38
B4 | 0.259
B5 | 0.878
B6 | 14.9
B7 | 0.368
B8 | 1.88
B9 | 0.539
B10 | 2.09
B11 | 0.366
B12 | 0.332
B13 | 0.457
B14 | 0.317
B15 | 0.667
B16 | 0.314
B17 | 4.2
B18 | 0.781
B19 | 1.93
B20 | 0.498
B21 | 1.31
B22 | 0.778
